From the CheMixHub ionic liquid set
The source gives many values for each of these; only a part stands here.

Assay: xn = mol fraction of the nth substance listed
Conditions: 298.15 K, 101 kPa

CCCCCCCCCCCCOS(=O)(=O)[O-].[Na+] + CCCO + O
Conditions	electrical conductivity [S/m]
x2 = 0.01553, x1 = 0.0003308	0.07978
x2 = 0.01553, x1 = 0.0003578	0.08478
x2 = 0.01553, x1 = 0.000383	0.08944
x2 = 0.01553, x1 = 0.0004069	0.09399
x2 = 0.02372, x1 = 0.0003901	0.0949
x2 = 0.02373, x1 = 1.75e-05	0.005353
x2 = 0.02373, x1 = 1.978e-05	0.006091
x2 = 0.02373, x1 = 2.168e-05	0.00667
x2 = 0.02373, x1 = 2.567e-05	0.00782
x2 = 0.02373, x1 = 3.005e-05	0.009043
x2 = 0.02373, x1 = 3.442e-05	0.01031
x2 = 0.02373, x1 = 3.804e-05	0.0114
x2 = 0.02373, x1 = 4.241e-05	0.01271
x2 = 0.02373, x1 = 4.964e-05	0.01488
x2 = 0.02373, x1 = 5.344e-05	0.01601
x2 = 0.02373, x1 = 6.903e-05	0.02092
x2 = 0.02373, x1 = 7.284e-05	0.02206
x2 = 0.02373, x1 = 7.721e-05	0.02332
x2 = 0.02373, x1 = 8.349e-05	0.02506
x2 = 0.02373, x1 = 8.748e-05	0.02621
x2 = 0.02373, x1 = 9.185e-05	0.02741
x2 = 0.02373, x1 = 9.585e-05	0.02852
x2 = 0.02373, x1 = 0.0001008	0.02992
x2 = 0.02373, x1 = 0.000104	0.0308
x2 = 0.02373, x1 = 0.0001105	0.03249
x2 = 0.02373, x1 = 0.0001169	0.03429
x2 = 0.02373, x1 = 0.0001221	0.03562
x2 = 0.02373, x1 = 0.0001295	0.03751
x2 = 0.02373, x1 = 0.0001392	0.03991
x2 = 0.02373, x1 = 0.0001554	0.04384
x2 = 0.02373, x1 = 0.0001706	0.0474
x2 = 0.02373, x1 = 0.0001919	0.05233
x2 = 0.02373, x1 = 0.0002168	0.05791
x2 = 0.02373, x1 = 0.0002537	0.06598
x2 = 0.02373, x1 = 0.0002848	0.07256
x2 = 0.03223, x1 = 0.0002102	0.05126
x2 = 0.03223, x1 = 0.0002472	0.05904
x2 = 0.03223, x1 = 0.0002927	0.06827
x2 = 0.03223, x1 = 0.0003477	0.07925
x2 = 0.03223, x1 = 0.0004112	0.0917
x2 = 0.03223, x1 = 0.0004828	0.1053
x2 = 0.03224, x1 = 3.68e-06	0.001146
x2 = 0.03224, x1 = 6.2e-06	0.001816
x2 = 0.03224, x1 = 8.91e-06	0.002513
x2 = 0.03224, x1 = 1.337e-05	0.00361
x2 = 0.03224, x1 = 1.821e-05	0.004833
x2 = 0.03224, x1 = 2.558e-05	0.006687
x2 = 0.03224, x1 = 3.1e-05	0.008058
x2 = 0.03224, x1 = 3.507e-05	0.009172
x2 = 0.03224, x1 = 3.953e-05	0.01037
x2 = 0.03224, x1 = 4.398e-05	0.01158
x2 = 0.03224, x1 = 4.902e-05	0.01284
x2 = 0.03224, x1 = 5.348e-05	0.01406
x2 = 0.03224, x1 = 5.793e-05	0.01532
x2 = 0.03224, x1 = 6.22e-05	0.01642
x2 = 0.03224, x1 = 6.646e-05	0.01789
x2 = 0.03224, x1 = 7.13e-05	0.01912
x2 = 0.03224, x1 = 7.556e-05	0.02014
x2 = 0.03224, x1 = 8.079e-05	0.02152
x2 = 0.03224, x1 = 8.912e-05	0.02363
x2 = 0.03224, x1 = 9.997e-05	0.02631
x2 = 0.03224, x1 = 0.0001224	0.03172
x2 = 0.03224, x1 = 0.0001377	0.03523
x2 = 0.03224, x1 = 0.0001779	0.04421
